Measured values: the supplement of paper PMC3334620
In all, about 33,000 sequences were measured (“E-score (-0.5 to 0.5)”: median about -0.053, highest 2% from about 0.37 on). This is one part of the list.

What follows are sequences tested against Hap1 (UniProt P0CE41) (assay: PBM E-score (8-mer binding enrichment) (E-score (-0.5 to 0.5)); higher = stronger / more preferred TF binding; most listed sequences are background and not binding sites). Settings: protein concentration: 200 nM; construct: GST-DNA-binding domain.
Chain of UniProt P0CE41 (P0CE41 whole entry, the tested form may be a part): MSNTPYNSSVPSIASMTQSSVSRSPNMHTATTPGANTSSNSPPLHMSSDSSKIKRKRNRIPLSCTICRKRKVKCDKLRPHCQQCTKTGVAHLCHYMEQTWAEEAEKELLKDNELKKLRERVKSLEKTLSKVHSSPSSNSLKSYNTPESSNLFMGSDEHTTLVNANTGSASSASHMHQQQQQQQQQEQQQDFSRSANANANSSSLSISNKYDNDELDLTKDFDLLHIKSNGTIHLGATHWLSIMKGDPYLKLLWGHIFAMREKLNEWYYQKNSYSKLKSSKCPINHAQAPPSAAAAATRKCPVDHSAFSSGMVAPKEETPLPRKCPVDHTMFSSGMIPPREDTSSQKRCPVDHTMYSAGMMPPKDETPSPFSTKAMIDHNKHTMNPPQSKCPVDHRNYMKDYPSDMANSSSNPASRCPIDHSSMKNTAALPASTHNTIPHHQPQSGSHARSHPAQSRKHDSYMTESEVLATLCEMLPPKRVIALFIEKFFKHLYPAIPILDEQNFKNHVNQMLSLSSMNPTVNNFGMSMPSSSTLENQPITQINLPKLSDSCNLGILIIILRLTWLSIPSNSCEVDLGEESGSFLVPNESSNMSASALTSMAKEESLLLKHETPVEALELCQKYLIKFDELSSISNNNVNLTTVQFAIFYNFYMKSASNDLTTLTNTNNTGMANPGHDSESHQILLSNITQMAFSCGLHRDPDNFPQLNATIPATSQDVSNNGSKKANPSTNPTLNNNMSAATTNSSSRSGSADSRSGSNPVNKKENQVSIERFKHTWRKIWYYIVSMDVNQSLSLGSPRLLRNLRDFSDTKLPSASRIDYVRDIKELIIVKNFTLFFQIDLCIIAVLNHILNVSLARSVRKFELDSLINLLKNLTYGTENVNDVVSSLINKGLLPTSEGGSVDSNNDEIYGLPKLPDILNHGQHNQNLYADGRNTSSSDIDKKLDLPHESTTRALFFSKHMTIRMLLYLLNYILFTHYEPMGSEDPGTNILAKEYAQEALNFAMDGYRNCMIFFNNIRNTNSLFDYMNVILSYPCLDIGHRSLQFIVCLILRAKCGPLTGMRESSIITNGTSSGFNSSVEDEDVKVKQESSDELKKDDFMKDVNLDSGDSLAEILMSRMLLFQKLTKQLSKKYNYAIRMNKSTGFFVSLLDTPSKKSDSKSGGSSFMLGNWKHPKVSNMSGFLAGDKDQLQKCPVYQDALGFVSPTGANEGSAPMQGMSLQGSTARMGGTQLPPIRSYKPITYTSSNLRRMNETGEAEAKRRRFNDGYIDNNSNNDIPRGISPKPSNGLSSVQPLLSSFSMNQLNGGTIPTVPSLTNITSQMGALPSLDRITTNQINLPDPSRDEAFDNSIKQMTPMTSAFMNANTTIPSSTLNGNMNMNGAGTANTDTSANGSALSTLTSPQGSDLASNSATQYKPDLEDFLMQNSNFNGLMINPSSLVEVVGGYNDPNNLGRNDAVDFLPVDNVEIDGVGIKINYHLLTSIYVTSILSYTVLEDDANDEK
Summary of the method: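 Masliner-normalised scans of fluorescent anti-GST signal were the basis for scoring. That signal came from GST-tagged yeast transcription factors applied at about 100-200 nM to double-stranded universal all-10-mer Agilent arrays on fresh or once-stripped slides. Each ungapped eight-base word, pooled with its reverse complement, received an E-score from the Universal PBM Analysis Suite.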

| Sequence | PBM E-score |
| --- | --- |
| GGGGTACA | 0.163 |
| ACAATACC | 0.0279 |
| CCTCAGAC | -0.00317 |
| CCAAATCG | 0.00406 |
| GCACCCCC | -0.0617 |
| ACCGGGTG | 0.327 |
| ACCTGACG | -0.229 |
| ACCGTGAT | 0.0661 |
| GGGGAACC | -0.144 |
| TGGTCACA | -0.0913 |
| CTGACCAA | -0.132 |
| AGCAACCT | -0.157 |
| AGCAGTAC | -0.2 |
| ACCACGTC | -0.116 |
| CTCTCGTA | -0.0664 |
| AGCCCCGC | 0.104 |
| AAGTGGCA | -0.233 |
| GATGCCCC | -0.0948 |
| CTGCCTCA | -0.224 |
| GATTAGCA | -0.057 |
| ATTGACCA | -0.0524 |
| TCGCAACA | -0.2 |
| CGCTAATA | 0.247 |
| GTTAAACA | -0.0588 |
| GCAATGGA | -0.125 |

| Sequence | PBM E-score |
| --- | --- |
| ACTACCGG | 0.305 |
| AAACAAGT | -0.125 |
| CTGGGGCC | -0.0665 |
| GATCACGA | -0.241 |
| CGCGTAGC | 0.0961 |
| CCCTACGG | 0.0542 |
| GACACTAC | -0.0201 |
| CTAGAATA | 0.0393 |
| ATACTCGC | 0.134 |
| GGGCTCAA | 0.0323 |
| CAGAGGTA | -0.18 |
| GATGCCGC | 0.0389 |
| GGATCCAC | 0.059 |
| CGAGCTCG | 0.129 |
| GGCGTAGA | 0.0367 |
| CTAACACC | 0.222 |
| AATTCGCA | 0.112 |
| ACTAGCGA | 0.105 |
| AAACGGCA | 0.0142 |
| ATACATCA | -0.18 |
| GTCTTCAA | -0.259 |
| CCTTCAGC | -0.304 |
| CCGCGGAG | 0.352 |
| CAGACATA | 0.0368 |
| GATCAGGC | -0.173 |

| Sequence | PBM E-score |
| --- | --- |
| ATTGAGTG | -0.061 |
| AGTCTAGA | -0.272 |
| TCCAAGGA | 0.0272 |
| GATCGACA | -0.113 |
| CCATTTGA | 0.027 |
| CGTGCTAA | -0.274 |
| AATCTTGT | 0.136 |
| GTCGCAGA | 0.0404 |
| ACCCTCCC | 0.181 |
| TACTCCAA | -0.22 |
| AACGAAGG | -0.308 |
| TCTTCGCA | 0.0202 |
| CTTCAGTC | -0.193 |
| ACGTCAAC | -0.105 |
| ACAGCTCC | 0.0968 |
| GATGTTCC | 0.13 |
| TACAATCA | -0.0187 |
| AAATGTAG | -0.107 |
| ATTCGTAC | 0.00708 |
| AAGAGATA | -0.23 |
| ATCGCAAA | 0.0318 |
| GAGCACTA | -0.132 |
| AAGATGGA | -0.114 |
| GCTGCCCA | -0.108 |
| AGCGTTGG | -0.274 |

| Sequence | PBM E-score |
| --- | --- |
| GCTAATCA | 0.00778 |
| GCGCTGGA | 0.111 |
| TATTGCCA | -0.057 |
| CGAAGTCA | 0.0132 |
| ATTCGCTC | 0.0145 |
| CCCGCGAA | 0.078 |
| ATCGTAAG | -0.0613 |
| ACTGCCGC | 0.112 |
| AGTAAAAC | -0.0962 |
| CGTGCATC | -0.0421 |
| GAAGATCC | 0.127 |
| CAGCTAGA | -0.264 |
| AACGTTTG | -0.112 |
| CATAGAAC | 0.0727 |
| AGATAACA | -0.0493 |
| GTGCTCTA | -0.115 |
| ATGCAGAC | -0.285 |
| TCAGGCAA | -0.197 |
| CCCATGAA | -0.244 |
| CTTCCAAA | -0.316 |
| CGGAGCTC | 0.313 |
| AACAAATG | -0.0316 |
| CCTTTTAC | -0.0625 |
| ACTTAGAT | -0.0138 |
| GGACATAC | 0.349 |

| Sequence | PBM E-score |
| --- | --- |
| CAATGCTA | -0.105 |
| CGTTTGCA | -0.124 |
| CCGCTCGC | 0.199 |
| CAAGGAAC | 0.0861 |
| AGGCCAAA | 0.0141 |
| CTGTCGAA | -0.268 |
| AGTGATAA | -0.168 |
| AAGATTCG | 0.0952 |
| GCTTAAGA | 0.0415 |
| AAAGCAAG | 0.139 |
| AGCTAACG | -0.023 |
| AAGCGCTG | 0.105 |
| CTCAAGGA | -0.0192 |
| TCAGCCGA | 0.329 |
| ACCCATAG | -0.264 |
| AAGACCTC | -0.211 |
| GCAGGACA | 0.00272 |
| CCTCGCTA | -0.149 |
| CTGTTACA | -0.145 |
| ATATAAGA | 0.0615 |
| ACCCGTTA | 0.318 |
| AAATAAGA | 0.0739 |
| ATAAAACA | -0.0261 |
| ACCTCGTA | -0.0139 |
| CGCCACAC | -0.0353 |

| Sequence | PBM E-score |
| --- | --- |
| CCATAGCA | -0.192 |
| AACCCGGC | 0.333 |
| AGTCGGGA | 0.171 |
| GACTGCGC | -0.075 |
| TAGGGGCA | -0.204 |
| CGGATGAA | 0.346 |
| CTTTAAAC | -0.18 |
| GCTCTTCA | -0.126 |
| CATACTCA | -0.102 |
| AAGTCTGG | -0.331 |
| ATCATATG | -0.0707 |
| CAGCAGCA | -0.256 |
| AGTCTGCA | -0.108 |
| GATAACGA | -0.00119 |
| GACTCGCA | -0.0589 |
| ATGTAGAG | -0.227 |
| ATCCATCG | -0.0149 |
| CCCTCTAG | -0.211 |
| CACAATGA | -0.237 |
| CAAAATTG | -0.191 |
| CCCTCTGC | -0.329 |
| CCGATACA | 0.43 |
| CTCAAACC | -0.00282 |
| AATGGCGG | 0.205 |
| ATGCTGCG | -0.111 |

| Sequence | PBM E-score |
| --- | --- |
| CACAGTAG | -0.236 |
| CCATCTTA | -0.0246 |
| CGAGGGAG | -0.0047 |
| ACTAGTTG | -0.221 |
| GTACAGAC | -0.132 |
| AATCGGTC | 0.295 |
| ACTAAGTA | -0.0777 |
| AAGGGCGC | 0.0613 |
| CCGGCCAC | 0.315 |
| AGGTATGC | 0.0142 |
| CATCTACC | -0.0272 |
| ATAGTGCG | -0.00342 |
| AACACGGA | 0.283 |
| CGGACTTA | 0.488 |
| GACAGGTC | -0.128 |
| GCAGGCGA | -0.197 |
| CAGCGTTA | -0.124 |
| TAAATAAA | -0.085 |
| GGCTGACC | -0.0824 |
| ATAGGCGA | 0.0101 |
| GATAACCA | 0.0257 |
| CGGTCTAC | 0.213 |
| AACAATCG | 0.0305 |
| CGTTAGTA | -0.0714 |
| CGACGAGC | -0.14 |

| Sequence | PBM E-score |
| --- | --- |
| ACTGGGGC | -0.159 |
| CCTTAAGC | -0.0205 |
| TCGGAGAA | 0.405 |
| TCGAGCAA | -0.0728 |
| AGGACATG | -0.181 |
| GGCACGCA | 0.0214 |
| CCCCTAGC | -0.21 |
| ACAGTAAC | -0.179 |
| ACGCGGGG | 0.293 |
| CACTGCTA | -0.22 |
| AACTAGTG | -0.0758 |
| CGTCCGAG | 0.401 |
| CAATCCTA | -0.0593 |
| AGTCGGGG | 0.246 |
| AGACCTAG | -0.15 |
| CTCTGCGA | -0.2 |
| AAATACGT | -0.134 |
| CTCGTTAC | -0.292 |
| TATGTCGA | -0.0806 |
| AAGGCTCC | -0.112 |
| CCGACCCC | 0.0403 |
| CTTGTCTA | -0.0104 |
| AACGAACG | 0.0701 |
| CTATCACC | 0.195 |
| AGATCCCA | -0.0155 |

| Sequence | PBM E-score |
| --- | --- |
| AGACGCTC | -0.161 |
| CTTCTTGA | -0.144 |
| CTTTACAA | -0.00459 |
| ACCAGAGA | -0.184 |
| GCACTAAA | 0.045 |
| GGCGAATA | 0.225 |
| GTTAACGA | -0.105 |
| CAGCTGGA | -0.141 |
| ACTGGACG | 0.00727 |
| AGATTGTC | 0.0974 |
| GGAGTCAA | 0.0955 |
| CTATTTGA | -0.0067 |
| TAATGTCA | -0.0749 |
| GAAGATAC | 0.0677 |
| CCCACCCA | 0.0398 |
| AACTAGGA | -0.0167 |
| AACTATGG | -0.0562 |
| GCTAGGCC | -0.0489 |
| AGTATTAT | -0.423 |
